The record followed here is patent US20090123389A1, “Methods for modulating Th17 cell development in the treatment and prevention of cellulite” (priority 2007, published 2009).

For the assay, the system named is amino acid response (AAR) pathway. In words: eIF2α phosphorylation and ATF4 protein in T cells (immunoblot). It counts as cell-based, mouse. As to conditions: tunicamycin 1 μg/ml or 10 nM HF, 4 hours. The procedure: Whole cell lysates were prepared 4 hours-post TCR activation and immunoblotting was performed with the indicated antibodies. ATF4 protein is indicated by arrowhead. NS—non-specific band.
FIG. 12E is an illustration depicting immunoblot analysis of purified CD4^+ CD25^− T cells activated through the TCR for the indicated times without exogenous cytokines in the presence of either 10 nM MAZ1310 or 10 nM HF as indicated. Whole cells lysates were prepared during the timecourse and immunoblotting was performed.
Cultures were further supplemented with either 10 nM MAZ1310 or 10 nM HF as indicated. Whole cell lysates were generated 4 hours after activation and immunoblotting was performed. Microarray data were generated from triplicate samples and all other data are representative of at least 2 similar experiments.
Western blotting: Whole cell lysates were generated from T cells activated for the indicated times. For STAT3 and Smad2/3 western blots cells were harvested, washed in PBS and lysed in 50 mM Tris, pH 7.4, 0.1% SDS, 1% Triton-×100, 140 mM NaCl, 1 mM EDTA, 1 mM EGTA supplemented with protease inhibitors tablets (Roche—Germany), 1 mM NaF and 1 mM Na3VO4. For eIF2α and ATF4 western blots, cells were harvested as above and lysed in 50 mM Tris, pH 7.4, 2% SDS, 20% glycerol and 2 mM EDTA supplemented with protease and phosphatase inhibitors as above. […]

As for tunicamycin, the “eIF2α phosphorylation and ATF4 expression in activated T cells” value was “induced eIF2α phosphorylation and ATF4 expression”. The value for `O=C(CC1NCCCC1O)Cn1cnc2cc(Br)c(Cl)cc2c1=O` (racemic) [HF, 7-bromo-6-chloro-3-[3-(3-hydroxy-2-piperidinyl)-2-oxopropyl]-4(3H)-quinazolinone] was “inducing eIF2α phosphorylation”.
